# Data published in PubChem BioAssay (NCATS).
# Values joined by “and” are separate entries in the source; they are usually repeats but may differ in a detail not shown here. Equal values may be shown once. The inconclusive results got no clear call from the source; some entries with a clear call stand among them for comparison. For some assays here: A potency beside an inconclusive call is a rough fit, not a confirmed value. For some assays here: A note “side channel” means that the fit belongs to a control or component signal, not to the main read-out. Active and inactive are the calls of the source. Unless noted, the call rests on the fitted dose curve; in most records, active means well fitted inhibition curve with a large enough effect; inconclusive means small, poorly fitted or top-dose-only effect; inactive means flat fitted curve, though single readings scatter.
# Biological target: Retinoic acid receptor RXR-alpha (Homo sapiens) (UniProt P19793)
# Sequence of UniProt P19793 (P19793 whole entry, looked up): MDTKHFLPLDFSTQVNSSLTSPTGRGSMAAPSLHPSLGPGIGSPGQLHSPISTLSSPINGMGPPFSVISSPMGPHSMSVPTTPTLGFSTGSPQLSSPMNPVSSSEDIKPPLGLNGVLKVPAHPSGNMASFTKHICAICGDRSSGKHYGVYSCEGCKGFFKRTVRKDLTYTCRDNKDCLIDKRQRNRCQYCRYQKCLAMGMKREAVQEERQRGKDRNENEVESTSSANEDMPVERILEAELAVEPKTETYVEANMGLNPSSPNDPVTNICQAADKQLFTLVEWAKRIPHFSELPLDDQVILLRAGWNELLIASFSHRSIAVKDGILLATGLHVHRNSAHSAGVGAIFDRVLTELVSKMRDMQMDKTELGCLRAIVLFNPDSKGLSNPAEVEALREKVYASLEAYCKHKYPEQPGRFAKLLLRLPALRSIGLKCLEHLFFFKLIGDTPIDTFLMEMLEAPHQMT
# Experiment: qHTS assay for small molecule antagonists of retinoid X receptor alpha signaling (AID 588546; active means well fitted inhibition curve with a large enough effect in the signal ratio, with a control signal flat, not every such curve was filed as active; inconclusive means small, poorly fitted or top-dose-only effect, or effect the other way, or a change in a side signal; inactive means no such curve, though single readings can be large or run the other way; the % refers to the signal ratio;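 further: cells stimulated with 9-cis-retinoic acid as agonist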)
# Settings: HEK293T RXRa-UAS-bla, beta-lactamase ratio, antagonist mode
# Procedure, shortened: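 Beta-lactamase reporter inhibition, read as CCF4 fluorescence ratio (ex 405, em 460/530 nm) after 2 h at RT. HEK293T UAS-bla cells, 2500/well, were stimulated with 9-cis-RA at 500 or 100 nM final alongside test compound for 18 h at 37 C.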
# On the % scale 0 is the no-effect control and ±100 the full control effect; tags describe the fitted curve by direction and shape or compound fluorescence and quenching.
row,Structure (SMILES),max response
1,C[C@](N)(Cc1ccc(O)c(O)c1)C(=O)O,inactive: -26.4%
2,O=c1c(O)c(-c2ccc(O)cc2)oc2cc(O)cc(O)c12,inconclusive: -69.8% and inconclusive: -44.5%
3,CC(=O)Oc1ccccc1C(=O)Nc1ncc([N+](=O)[O-])s1,inconclusive: -66.7%
4,Cc1cc(O)c2c(c1)C(=O)c1cc(O)cc(O)c1C2=O,inconclusive: 1.71%

# Biological target: Thyroid hormone receptor beta (Homo sapiens) (UniProt P10828)
# Sequence of UniProt P10828 (P10828 whole entry, looked up): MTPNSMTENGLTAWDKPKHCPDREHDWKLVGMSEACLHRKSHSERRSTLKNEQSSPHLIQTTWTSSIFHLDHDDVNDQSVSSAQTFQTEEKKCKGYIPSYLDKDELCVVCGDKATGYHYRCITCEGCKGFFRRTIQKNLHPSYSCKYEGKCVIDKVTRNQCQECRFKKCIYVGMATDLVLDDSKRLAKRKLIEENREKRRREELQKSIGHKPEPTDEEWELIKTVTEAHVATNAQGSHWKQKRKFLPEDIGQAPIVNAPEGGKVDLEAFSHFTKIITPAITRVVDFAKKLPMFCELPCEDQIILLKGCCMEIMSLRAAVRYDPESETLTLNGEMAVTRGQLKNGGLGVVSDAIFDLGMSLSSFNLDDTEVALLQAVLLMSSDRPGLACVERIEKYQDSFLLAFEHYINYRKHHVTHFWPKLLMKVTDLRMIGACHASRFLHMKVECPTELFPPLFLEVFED
# Experiment: qHTS assay for small molecule antagonists of thyroid hormone receptor beta signaling (AID 588547; active means well fitted inhibition curve with a large enough effect in the signal ratio, with a control signal flat, not every such curve was filed as active; inconclusive means small, poorly fitted or top-dose-only effect, or effect the other way, or a change in a side signal; the % refers to the signal ratio; further: potency means the concentration at half of the fitted maximal effect;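 on activity change % (negative = inhibition): cells stimulated with 0.4 nM T3 agonist during compound exposure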)
# Settings: TR-UAS-bla HEK293, beta-lactamase ratio, antagonist mode, 18 h
# Procedure, shortened: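 Inhibition of T3-driven (0.4nM final) beta-lactamase reporter activity was measured over 0.59 nM to 92 uM compound after 18 h at 37 C. The cells were GripTite HEK293 TR-UAS-bla in charcoal/dextran-stripped serum, with CCF4 ratio read-out and IC50 from Hill fits.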
Structure (SMILES),Potency,activity change % (negative = inhibition)
Nc1cc(-c2ccncc2)c[nH]c1=O,"inconclusive: 7.94 µM [side channel, falling, partial curve, poor fit]",
O=NN(CCCl)C(=O)NCCCl,,inactive: 11.9%
CC(=O)CC(c1ccccc1)c1c(O)c2ccccc2oc1=O (configuration not stated),,inactive: 9.03%
CC(=O)Oc1ccccc1C(=O)Nc1ncc([N+](=O)[O-])s1,,inconclusive: -45.6%
Cc1cc(O)c2c(c1)C(=O)c1cc(O)cc(O)c1C2=O,,inconclusive: -17.6%
COc1cc(OC)c(C(=O)CCCN2CCCC2)c(OC)c1,"inconclusive: 3.16 µM [side channel, falling, partial curve, poor fit]",

# Biological target: Voltage-gated inwardly rectifying potassium channel KCNH2 (Homo sapiens) (UniProt Q12809)
# Sequence of UniProt Q12809 (Q12809 whole entry, looked up): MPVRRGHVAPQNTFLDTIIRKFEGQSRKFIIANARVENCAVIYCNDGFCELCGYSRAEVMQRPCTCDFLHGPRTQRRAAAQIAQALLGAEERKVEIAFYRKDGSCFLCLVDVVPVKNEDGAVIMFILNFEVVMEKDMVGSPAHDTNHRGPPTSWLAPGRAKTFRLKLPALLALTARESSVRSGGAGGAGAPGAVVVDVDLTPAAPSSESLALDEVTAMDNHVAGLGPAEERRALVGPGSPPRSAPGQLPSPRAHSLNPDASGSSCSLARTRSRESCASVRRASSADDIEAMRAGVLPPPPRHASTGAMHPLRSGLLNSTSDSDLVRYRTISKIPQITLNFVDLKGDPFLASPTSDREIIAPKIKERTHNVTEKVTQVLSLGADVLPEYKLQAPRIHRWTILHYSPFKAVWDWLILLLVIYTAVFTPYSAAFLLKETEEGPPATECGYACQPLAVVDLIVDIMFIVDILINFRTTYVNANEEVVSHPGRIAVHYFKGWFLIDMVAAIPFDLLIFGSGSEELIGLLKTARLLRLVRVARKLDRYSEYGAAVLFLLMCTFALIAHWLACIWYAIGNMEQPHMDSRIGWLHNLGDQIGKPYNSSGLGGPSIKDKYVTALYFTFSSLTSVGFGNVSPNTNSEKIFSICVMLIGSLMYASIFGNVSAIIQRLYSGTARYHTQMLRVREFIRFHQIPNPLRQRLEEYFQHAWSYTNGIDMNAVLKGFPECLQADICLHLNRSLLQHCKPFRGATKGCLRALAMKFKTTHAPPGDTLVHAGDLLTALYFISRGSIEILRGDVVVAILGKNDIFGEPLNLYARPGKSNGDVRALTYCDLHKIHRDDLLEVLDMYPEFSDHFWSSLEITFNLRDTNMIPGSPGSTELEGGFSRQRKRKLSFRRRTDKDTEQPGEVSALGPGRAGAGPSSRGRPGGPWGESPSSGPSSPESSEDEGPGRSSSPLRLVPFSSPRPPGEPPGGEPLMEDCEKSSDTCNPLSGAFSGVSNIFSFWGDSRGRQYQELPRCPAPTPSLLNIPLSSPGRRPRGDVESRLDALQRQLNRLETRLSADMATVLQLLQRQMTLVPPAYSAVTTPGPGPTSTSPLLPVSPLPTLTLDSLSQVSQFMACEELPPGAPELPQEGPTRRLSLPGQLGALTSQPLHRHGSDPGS
# Experiment: qHTS Assay for Small Molecule Inhibitors of the Human hERG Channel Activity (AID 588834);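 further: lower thallium flux fluorescence means stronger hERG block; nearly all actives have a fitted effect of over 50% in size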; further: potency means the concentration at half of the fitted maximal effect; on activity change, negative = inhibition: top concentration of the series differs between compounds
# Settings: U2OS BacMam hERG, FluxOR thallium flux fluorescence; series mostly up to 46.1 µM; activity change, negative = inhibition: at the top concentration
# Procedure, shortened: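 Homogeneous FluxOR thallium flux assay using hERG-expressing U2OS cells (BacMam). Compound treatment about 10 minutes preceded stimulation; reduced fluorescence taken as channel block.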
Structure (SMILES),Potency,"activity change, negative = inhibition"
O=C(CCN1CCN(CCO)CC1)N1c2ccccc2Sc2ccc(C(F)(F)F)cc21,"inconclusive: 15.8 µM [inhibitor, partial curve, poor fit]",
CN(C)CCCSc1ccccc1NC(=O)/C=C/c1ccccc1,"inconclusive: 5.62 µM [inhibitor, partial curve, poor fit]",
O=C(CCN1CCN2CCCC2C1)N1c2ccccc2Sc2ccc(Cl)cc21 (configuration not stated),active: 15.8 µM,
CNCCCCOc1ccccc1Cc1ccccc1,active: 6.31 µM,
NC(CO)C(=O)NNCc1ccc(O)c(O)c1O (configuration not stated),inactive,
COc1ccnc(CS(=O)c2nc3ccc(OC(F)F)cc3[nH]2)c1OC (configuration not stated),"inconclusive: 15.8 µM [inhibitor, partial curve]",
CCc1nn(CCCN2CCN(c3cccc(Cl)c3)CC2)c(=O)n1CCOc1ccccc1,active: 1 µM,
FC(F)(F)C(F)(F)C(F)(F)C(F)(F)C(F)(F)C(F)(F)C(F)(F)C(F)(F)Br,"inconclusive: 35.5 µM [inhibitor, single point]",
O=C(Nc1ccccc1)OCC(CN1CCCCC1)OC(=O)Nc1ccccc1 (configuration not stated),"inconclusive: 7.08 µM [inhibitor, partial curve, poor fit]",
CCCCN(CCCC)CCC(O)c1cc2c(Cl)cc(Cl)cc2c2cc(C(F)(F)F)ccc12 (configuration not stated),active: 0.398 µM,
CC(C)Oc1ccc2c(=O)c(-c3ccccc3)coc2c1,"inconclusive: 14.1 µM [inhibitor, full curve]",
CCCCCCCCCCCCOCCOCCOCCOCCOCCOCCOCCOCCOCCO,"inconclusive: 25.1 µM [inhibitor, partial curve, poor fit]",
O=c1cc(N2CCOCC2)oc2c(-c3ccccc3)cccc12,,inactive: -7.91%
OC[C@@H](O)[C@@H](O)[C@H](O)[C@H](O)CO,"inconclusive: 35.5 µM [inhibitor, single point]",
Oc1ccc(OCc2ccccc2)cc1,,inactive: 2.85% [at 20.6 µM]
Cc1c(C)n(Cc2ccccc2)c2ccc(C(=O)OCCN(C)C)cc12,"inconclusive: 35.5 µM [inhibitor, single point]",
CN(C)C(N)=NCCC[C@H](N)C(=O)O,,inactive: 16.5%
CN1CC(=O)N2C(Cc3c([nH]c4ccccc34)[C@H]2c2ccc3c(c2)OCO3)C1=O (some centres not stated),,inactive: 3.2%
O=C(/C=C/c1ccccc1)NCCO,"inconclusive: 25.1 µM [inhibitor, partial curve, poor fit]",
O=C1c2ccccc2C(=O)c2c1ccc(O)c2O,"inconclusive: 35.5 µM [inhibitor, single point]",
CC(O)(P(=O)(O)O)P(=O)(O)O,"inconclusive: 35.5 µM [inhibitor, single point]",
CCCc1nc2c(C)cc(-c3nc4ccccc4n3C)cc2n1Cc1ccc(-c2ccccc2C(=O)O)cc1,,inactive: -28.9%
